Publication PMC4336329 (PLoS ONE, 2015)
Screen size: about 310,000 compounds; about 14,000 (4.5%) showed an effect of 50% or more. The effect is printed as a negative number. The list shows a part of the results.

Each compound was assayed against human ether-à-go-go-related gene (hERG) potassium channel (human, UniProt Q12809) (assay: primary screen, population patch clamp on CHO cells stably expressing hERG).
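Note: peak tail current of the secondary pulse compared with the same well before compound.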

Chain of human ether-à-go-go-related gene (hERG) potassium channel (Q12809 whole entry, looked up): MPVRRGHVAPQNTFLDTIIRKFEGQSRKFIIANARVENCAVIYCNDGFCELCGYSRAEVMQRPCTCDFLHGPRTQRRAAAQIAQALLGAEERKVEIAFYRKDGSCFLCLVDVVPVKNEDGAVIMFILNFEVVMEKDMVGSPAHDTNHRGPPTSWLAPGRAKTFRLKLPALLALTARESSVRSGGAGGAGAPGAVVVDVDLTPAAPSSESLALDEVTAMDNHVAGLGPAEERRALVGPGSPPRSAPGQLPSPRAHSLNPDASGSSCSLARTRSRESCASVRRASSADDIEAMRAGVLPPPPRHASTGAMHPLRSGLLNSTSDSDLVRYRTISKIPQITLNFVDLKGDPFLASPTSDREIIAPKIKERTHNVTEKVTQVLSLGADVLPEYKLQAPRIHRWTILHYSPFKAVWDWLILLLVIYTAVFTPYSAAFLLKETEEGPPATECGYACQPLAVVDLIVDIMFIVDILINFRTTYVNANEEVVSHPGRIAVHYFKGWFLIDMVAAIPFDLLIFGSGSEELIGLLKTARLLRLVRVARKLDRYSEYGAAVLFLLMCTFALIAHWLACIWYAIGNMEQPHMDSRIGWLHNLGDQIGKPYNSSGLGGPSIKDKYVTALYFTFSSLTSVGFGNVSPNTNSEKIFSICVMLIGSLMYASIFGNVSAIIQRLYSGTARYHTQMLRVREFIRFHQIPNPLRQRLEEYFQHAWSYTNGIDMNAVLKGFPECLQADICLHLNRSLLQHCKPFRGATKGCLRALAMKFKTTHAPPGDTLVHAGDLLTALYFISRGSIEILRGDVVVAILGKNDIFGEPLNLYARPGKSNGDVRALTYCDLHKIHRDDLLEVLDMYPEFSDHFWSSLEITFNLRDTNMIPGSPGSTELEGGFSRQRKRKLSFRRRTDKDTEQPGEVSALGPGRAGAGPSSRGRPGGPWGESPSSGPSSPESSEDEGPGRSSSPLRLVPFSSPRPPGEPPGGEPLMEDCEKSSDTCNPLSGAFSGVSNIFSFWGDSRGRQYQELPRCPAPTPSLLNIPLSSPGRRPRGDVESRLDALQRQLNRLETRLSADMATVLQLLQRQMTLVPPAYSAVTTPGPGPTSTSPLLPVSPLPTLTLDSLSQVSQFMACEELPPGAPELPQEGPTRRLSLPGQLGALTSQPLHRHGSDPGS

Compound | hERG current change (%, negative = inhibition) at 10uM [%]
O=S(=O)(c1ccccc1)c1ccc(N2CCCCCC2)cc1 | -3.76
Cc1c(C(=O)NCc2ccccc2)oc2c1C(=O)CCC2 | -6.1
CCN(C(=O)COC(=O)c1cnc(C)cn1)c1c(N)n(Cc2ccccc2)c(=O)[nH]c1=O | 10
CC1=C(C(=O)NCc2ccccc2)C(c2ccc(C)o2)n2ncnc2N1 (centres unmarked) | -11.2
N#CC1=C(N)Oc2n[nH]c(-c3cccs3)c2C1c1ccncc1 (centres unmarked) | -0.917
CCN(CC(=O)NCc1ccc(F)cc1)C(=O)c1ccc(COc2ccccc2)cc1 | -47.9
O=S(=O)(Nc1cc(S(=O)(=O)N2CCOCC2)ccc1N1CCCC1)c1cccs1 | -4.49
CCN(CC)C(=O)CCc1nc2sc3c(c2c(=O)[nH]1)CCCC3 | -4.13
N#Cc1ncc(Cc2ccccc2)nc1C#N | 11.7
Cn1cc(CN2CCCC(CNS(=O)(=O)c3cccc4cccnc34)C2)cn1 (centres unmarked) | 5.77
COc1ccc(N(C)S(=O)(=O)c2ccc3c(c2)CCN3C(=O)C2CC2)c(OC)c1 | -22.4
Cc1[nH]c(=O)[nH]c(=O)c1S(=O)(=O)N(CC(C)C)CC(C)C | 21
CCOC(=O)c1ccc(NC(=S)N2CCC(C(N)=O)(N3CCCCC3)CC2)cc1 | 2.47
CC1CCc2c(sc(NC(=O)CSc3nnc(-c4ccccc4)o3)c2C#N)C1 (centres unmarked) | 6.67
Cc1ccc(C)c(N2CCN(C(=O)COc3cc(=O)n(C)c4ccccc34)CC2)c1 | -32.3
N#CCc1ccc(NC(=O)c2ccc(S(=O)(=O)N3CCCC3)cc2)cc1 | 16.9
CCn1c(=O)cc(OCC(=O)Nc2ccc(C)cn2)c2ccccc21 | -0.844
CCn1nnc(NC(=O)c2cc(Cl)c(OC)c(Cl)c2)n1 | -8.03
O=C(NCCCN1CCOCC1)c1ccc(CNS(=O)(=O)c2ccc(Br)cc2)cc1 | -18.9
C=CCN1C(=O)c2cccc3c(Br)ccc(c23)C1=O | 7.56
CCOC(=O)C1CCCN(C(=O)Cc2c(C(=O)O)[nH]c3ccccc23)C1 (centres unmarked) | -2.79
Cc1cc(NCc2ccccc2)nc(-c2ccccc2O)n1 | -1.86
Cc1ccc(S(=O)c2ccc(C)cc2)cc1 | -2.31

Compound | hERG current change (%, negative = inhibition) at 10uM [%]
O=C(CSc1nnc(-c2ccncc2)n1Cc1ccco1)Nc1ccccc1F | -20.4
CCOc1ccc(NC(=S)N=Nc2c(O)[nH]c3ccccc23)cc1 | -2.95
COc1ccc(C(=O)COC(=O)c2ccc(N(C)C)cc2)cc1 | -0.557
O=c1[nH]c(=O)n(Cc2ccc(F)cc2)c(O)c1C=NCCCN1CCOCC1 | -15.9
COC(=O)c1cccc(NC(=O)/C=C/c2ccc([N+](=O)[O-])cc2)c1 | -21.4
CNC(=O)c1csc(-c2ccc(Cl)cc2)n1 | -4.29
CCC(C)NC(=O)Nc1ccc(Br)cc1 (centres unmarked) | -8.93
Fc1ccc(-n2cc(-c3ccccc3)[n+]3c2SCC3)cc1.[Br-] | -22.7
CC1=NNC(=O)C1CC(=O)N/N=C(\C)c1ccco1 (centres unmarked) | 18.8
Cc1occc1C(=O)NNC(=S)Nc1ccccc1 | 8.24
CCOc1ccccc1CN1CCN(Cc2ccon2)CC1CCO (centres unmarked) | -42.6
CC(=O)Nc1ccc2nc(CN3CCN(CC=C(C)C)C(CCO)C3)ccc2c1 (centres unmarked) | 11.5
CC(=O)Nc1ccc(S(=O)(=O)Nc2cccc(C(=O)NC(C)(C)C)c2)cc1 | -7.15
CCC1=NN2C(=N)/C(=C/c3ccc(OS(=O)(=O)c4ccccc4)c(OC)c3)C(=O)N=C2S1 | 3.74
Cc1cc2n(n1)C(c1ccccc1Cl)Nc1ccccc1-2 (centres unmarked) | -11.3
O=C(NCCc1ccccc1)NC(Cc1ccccc1)C(=O)O (centres unmarked) | 5.7
CC(C)(C)C1CCC(OC(=O)C[N+]2(C)CCCCC2)CC1.[I-] (centres unmarked) | 23.1
CNC(=S)N(CCc1ccc(OC)c(OC)c1)Cc1cc2c(C)cc(C)cc2[nH]c1=O | -17.7
O=C(CNC(=O)c1cccs1)NCC(=O)OCc1c(Cl)cccc1Cl | -9.19
COc1ccc(CC(=O)Nc2ccc(-c3noc(-c4ccccc4OC)n3)cc2)cc1 | -8.1
Br.COc1cccc(C(=O)Cn2c(=N)n(C)c3ccccc32)c1 | -27.2
Cc1ccc(NC(=O)/C(C#N)=C/c2ccccc2C(F)(F)F)cc1 | 14.4
COc1cc(CCC(=O)Nc2nnc(-c3cccnc3)s2)cc(OC)c1OC | -35.6

Compound | hERG current change (%, negative = inhibition) at 10uM [%]
CN(C)S(=O)(=O)c1ccc(C(=O)Nc2ccccn2)cc1 | -9.58
COc1cccc(-n2cn[nH]c2=S)c1 | 19
N#Cc1nc(Cc2cccc3ccccc23)oc1NCC1CCCO1 (centres unmarked) | -17.3
Cc1cc(C)cc(OCC(=O)N/N=C/c2ccco2)c1 | 37.4
N#Cc1ccccc1OCC(=O)NC(N)=O | 8.51
CC1Cc2ccccc2N1C(=O)CCn1c(=O)sc2ccccc21 (centres unmarked) | -6.66
COc1ccc(N2CCN(S(=O)(=O)CCNC(=O)COc3ccc(Cl)cc3)CC2)cc1 | 17.8
Cc1cccc(C)c1N(CC(O)Cn1c2ccccc2c2ccccc21)S(C)(=O)=O (centres unmarked) | 18.6
CCCCNc1c(-c2cccc(-c3ccc(OC)cc3)c2)nc2ccc(C)cn12.O=C(O)C(F)(F)F | 0.506
CNNC(=S)NCCC1=CCCCC1 | -4.39
Cn1c(=O)c2c(ncn2CC(=O)N2CCCCCC2)n(C)c1=O | 17.3
COc1ccc(C(=O)/C=C/Sc2nc3ccccc3o2)cc1 | 24.3
COC(=O)c1cccc2c1-c1ccccc1/C2=N\NC(N)=O | 6.03
COc1cc(OC)cc(-c2nc(SCC(=O)Nc3ccccc3F)n[nH]2)c1 | 19
COc1ccc(N(CC(=O)NCCc2ccc(OC)c(OC)c2)S(=O)(=O)c2c(C)noc2C)cc1 | 0.275
CN(C)c1ccc(/C=C(/NC(=O)c2ccccc2)C(=O)NCCCn2ccnc2)cc1 | 0.277
CCN1CCC(Nc2ccnc3cc(Cl)ccc23)CC1 | -40.5
O=C(Nc1cccc(Cl)c1)c1cccc(N2C(=O)C3CC=CCC3C2=O)c1 (centres unmarked) | -24.8
CCN(CC)CCCNC(=O)c1cn(CC)c2ccc(S(=O)(=O)N3CCc4ccccc4C3)cc2c1=O | -52.9
O=C(COc1ccc2ccccc2c1)Nc1nnc(-c2ccco2)s1 | 7.18
CC(=O)C1=C(C)NC(=S)NC1c1cc([N+](=O)[O-])ccc1O (centres unmarked) | -2.48
CC(OC(=O)CC1CCCC1)C(=O)Nc1ccc(S(N)(=O)=O)cc1 (centres unmarked) | -13.1
Fc1ccc(CN(Cc2ccccc2)C(c2cccs2)c2nnnn2C2CCCCC2)cc1 (centres unmarked) | -1.36

Compound | hERG current change (%, negative = inhibition) at 10uM [%]
CSc1nnc(-c2sc3cc(Cl)ccc3c2Cl)n1C | 0.137
COc1ccccc1NC(=O)N1CCN(S(C)(=O)=O)CC1 | 16.5
Cc1ccc(NC(=O)COc2ccc3c(c2)OCO3)c(Cl)c1 | 23.7
COc1cc(NC(=O)C2CCCN2C(=O)C2CCC(C)CC2)cc(OC)c1OC (centres unmarked) | -5.06
Cc1ccccc1C(=O)Nc1ccc(N2CCN(C)CC2)nc1 | -1.6
CCOc1ccc(C(=O)NC2CCN(C(=O)Nc3ccc(F)cc3)CC2)cc1 | 0.481
CCC1(C)Cc2sc3c(=O)[nH]c(=S)[nH]c3c2CO1 (centres unmarked) | 15.6
c1cnc(Sc2ccc3nnnn3n2)nc1 | -56.4
Cn1c2ccccc2c(=O)c2ccc(F)cc21 | 0.557
CCOc1ccc(CCNC(=O)COC(=O)c2cc(OC)c(OC)cc2[N+](=O)[O-])cc1OCC | -9.31
O=C1[C@@H]2Cc3c([nH]c4ccccc34)C(c3ccc([N+](=O)[O-])cc3)N2C(=O)CN1C1CC1 (some centres unmarked) | -25.2
O=[N+]([O-])c1nn(-c2ccccc2)[n+]([O-])c1N1CCN(c2ccccc2F)CC1 | 16
Cc1nc(N2CCN(c3ccccn3)CC2)c2c(C)c(C(=O)N3CCN(c4ccccc4F)CC3)sc2n1 | 11.8
Cc1cc(-c2nnc(SCc3ccccn3)o2)no1 | 7.86
CCOC(=O)C1=C(C)Nc2ccccc2N/C1=N\S(=O)(=O)c1ccc(Cl)cc1 | -7.32
Cc1ccc(NC(=O)CCNC(=O)c2ccc(Cl)cc2)cc1C | 6.53
CSc1cccc(NS(=O)(=O)c2cccs2)c1 | -1.95
O=C(Nn1c(-c2ccccc2)nc2ccccc2c1=O)c1cccs1 | 8.42
O=C(O)/C(=C\c1cccs1)Sc1nnc(-c2ccc(F)cc2)o1 | 1.52
COc1ccc(C(C)=O)cc1CSc1ccccn1 | 4.16
